Measured values published in PubChem BioAssay AID504832 (National Center for Advancing Translational Sciences (NCATS), 2011).
Screen size: about 310,000 compounds; about 18,000 (5.8%) were called active. The inconclusive results got no clear call from the source; some entries with a clear call stand among them for comparison. Calls come from the whole dose curve; as a rule, active = well fitted inhibition curve with a large enough effect; inconclusive = small, poorly fitted or top-dose-only effect, or another doubt; inactive = no such curve, though single readings can be large or run the other way. Potencies of inconclusive entries are left out as doubtful fits.

Assay: Primary qHTS for delayed death inhibitors of the malarial parasite plastid, 48 hour incubation
Conditions: P. falciparum luciferase growth in erythrocytes; series mostly up to 28.7 µM; activity change, negative = inhibition: at the top concentration
How it was run: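 Luciferase-expressing parasites in RBCs, 2% Hct / 0.1% parasitemia final; RPMI 1640 + 0.5% Albumax; 37 C, 5% CO2, one generation; luminescence read-out, lower signal = inhibition.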
% is set by controls: 0 for no effect and ±100 for the full control effect; potency is the fitted concentration of half-maximal effect; tags give direction and shape of the fitted curve.

Row | Compound | Potency | activity change, negative = inhibition
1 | COc1ccc(CNC(NC(=O)c2ccccc2)(C(F)(F)F)C(F)(F)F)cc1 | active: 11.7 µM | –
2 | Cc1c(C(=O)NC(=S)Nc2ccccc2N2CCCC2)cccc1[N+](=O)[O-] | active: 14.7 µM | –
3 | Cc1sc2nc(SCC(=O)Nc3c(C)n(C)n(-c4ccccc4)c3=O)n(C)c(=O)c2c1C | – | inactive: -18.3%
4 | c1ccc(COc2ccc(CNCc3cccnc3)cc2)cc1 | – | inactive: -11.9%
5 | CCCCNC(=O)CCn1nc(-c2ccc(Cl)cc2)c2ccccc2c1=O | inconclusive [inhibitor, single point] | –
6 | COc1ccccc1/C=C/C=N/NC(=O)c1ccccn1 | – | inactive: 358%
7 | CC12CCC(=O)N1C(C(=O)N1CCN(S(=O)(=O)c3cccc(C(F)(F)F)c3)CC1)CS2 (centres undefined) | – | inactive: 0%
8 | CCCOc1cccc(-c2cc(C(=O)NN)c3ccccc3n2)c1 | inconclusive [inhibitor, single point] | –
9 | O=C(NC(=S)N(CCCCO)C1CCCCC1)c1sc2ccccc2c1Cl | inconclusive [inhibitor, single point] | –
10 | C[C@H]1c2cccc(O)c2C(O)=C2C(=O)[C@]3(O)C(O)=C(C(N)=O)C(=O)[C@@H](N(C)C)C3[C@@H](O)C21 (some centres undefined) | active: 3.7 µM | –
11 | COc1ccc(NC(=O)CN(C)C(=O)c2ccc(OCc3ccccc3)c(OC)c2)cc1 | – | inactive: 8.53%
12 | Fc1ccc(C(c2nnnn2Cc2cccs2)N2CCN(c3ccccc3)CC2)cc1 (centres undefined) | inconclusive [inhibitor, single point] | –
13 | COc1ccc(N2CCN(CCS(=O)(=O)c3cc(Cl)ccc3Cl)CC2)cc1 | inconclusive [inhibitor, single point] | –
14 | Cc1ccc(CNC(=O)CSc2ccc(-c3ccccn3)nn2)cc1 | – | inactive: 7.77%
15 | COc1ccc(NS(=O)(=O)c2cc(NC(=O)c3ccncc3)ccc2N2CCOCC2)cc1 | inconclusive [inhibitor, single point] | –
16 | CCCc1cc(=O)oc2cc(OCC(=O)NCCCn3ccnc3)ccc12 | – | inactive: -16.9%
17 | CCO[C@H]1OC(C(=O)N2CCN(Cc3ccc4c(c3)OCO4)CC2)=C[C@@H](c2cn(C(C)=O)c3ccccc23)[C@@H]1CCCO | active: 1.04 µM | –
18 | Cc1ccc(C)c(N(C)S(=O)(=O)c2ccc3[nH]cc(C(=O)NCCN4CCOCC4)c(=O)c3c2)c1 | inconclusive [inhibitor, partial curve] | –
19 | Cc1nn(C)c(Oc2ccc(Cl)cc2)c1C(=O)O | inconclusive [inhibitor, partial curve, poor fit] | –
20 | O=C(NC1CCCC1)C(c1cccs1)N(Cc1ccco1)C(=O)Cn1nnc(-c2cccs2)n1 (centres undefined) | inconclusive [inhibitor, partial curve] | –
21 | CCCOc1c(Br)cc(C2C3=C(CCCC3=O)N(CC)C3=C2C(=O)CCC3)cc1OC | inconclusive [inhibitor, single point] | –
22 | COc1ccc(N2CCN(C3CCCN(Cc4ccc(F)c(F)c4)C3)CC2)cc1 (centres undefined) | inconclusive [inhibitor, partial curve, poor fit] | –

Row | Compound | Potency | activity change, negative = inhibition
23 | CC(OC(=O)/C(C#N)=C/c1ccc(N(C)C)cc1)C(=O)N(C)Cc1ccccc1 (centres undefined) | inconclusive [inhibitor, partial curve, poor fit] | –
24 | CC(Sc1nnc(N)s1)C(=O)NCc1ccc2c(c1)OCO2 (centres undefined) | – | inactive: -5.16%
25 | COc1cccc(NC(=O)CN(C)C(=O)c2ccccc2CCc2ccccc2)c1 | inconclusive [inhibitor, single point] | –
26 | CCn1nnnc1NCc1ccc(OCc2ccc(F)cc2Cl)c(OC)c1 | inconclusive [inhibitor, single point] | –
27 | O=[N+]([O-])c1ccc(N(CCO)Cc2ccccc2)c([N+](=O)[O-])c1 | active: 4.65 µM | –
28 | CCOc1ccc2nc(NCCCNC(=O)c3cc(OC)c(OC)c(OC)c3)c(C#N)cc2c1 | inconclusive [inhibitor, partial curve] | –
29 | CCOC(=O)C1=C(C)N=C2SC(C)C(=O)N2C1/C=C/c1ccccc1OC (centres undefined) | active: 11.7 µM | –
30 | COc1ccc(CCN2C(=O)CN(Cc3ccccc3)CC2=O)cc1OC | inconclusive [inhibitor, partial curve, poor fit] | –
31 | COc1cccc(N2CCN(c3ccc4nnc(CCC(=O)Nc5cc(C)ccn5)n4n3)CC2)c1 | inconclusive [inhibitor, single point] | –
32 | CCC1CN(C(=O)NCc2ccc(F)cc2)c2cc(Cl)ccc2O1 (centres undefined) | inconclusive [inhibitor, partial curve] | –
33 | CCOC(=O)c1c(C)[nH]c(C)c1S(=O)(=O)N(C)CC(=O)NCc1ccc(C)cc1 | inconclusive [inhibitor, single point] | –
34 | c1ccc2c(c1)nc(CN1CCOCC1)n1c3ccccc3nc21 | inconclusive [inhibitor, full curve, poor fit] | –
35 | Fc1ccc(Oc2nccc(-c3ccc(Cl)cc3)n2)cc1 | – | inactive: -8.81%
36 | Cc1cccc(OCC(O)Cn2c(=N)n(CCN3CCOCC3)c3ccccc32)c1 (centres undefined) | inconclusive [inhibitor, full curve] | –
37 | CC(=O)O[C@H]1CC[C@H]2[C@@H]3CCC4=CC(=O)CCC4=C3C=C[C@]12C | – | inactive: -5.09%
38 | CC(C)Cc1[nH]c(=O)c(C#N)c2c1COC(C)(C)C2 | – | inactive: -16.2%
39 | Cc1ccc(S(=O)(=O)Cn2nnnc2CN2CCN(Cc3ccc4c(c3)OCO4)CC2)cc1 | – | inactive: -13.9%
40 | Cc1cc(COc2ccccc2OCc2cc(C)no2)on1 | – | inactive: 2.32%
41 | Cc1noc(C)c1COc1ccc(C(=O)NCCc2ccccn2)cc1 | – | inactive: -10.2%
42 | O=C(c1cccc(F)c1)N1CCN(c2cccc(C(F)(F)F)c2)CC1 | inconclusive [inhibitor, partial curve, poor fit] | –
43 | CC(=O)c1ccc(OCc2cc(C(=O)N(C)CCN3CCOCC3)no2)cc1 | inconclusive [inhibitor, single point] | –
44 | CCOC(=O)c1ccc(NC(=S)NNC(=O)c2cc(-c3cccnc3)nc3ccccc23)cc1 | active: 4.15 µM | –
